{
  "source": "the supplement of paper PMC11417369",
  "note": "± gives the standard deviation of the averaged measurements. This is one part of the list.",
  "data": [
    {"test_system": "PfAP2-LT AP2 domain (GST-tagged)", "experiment": "gcPBM binding intensity (ln(normalized median fluorescence intensity)); higher = stronger DNA binding", "outline": "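GST-fused DNA-binding domains of P. falciparum, expressed in E. coli, were applied at about 25 μg on average for 1 h to an Agilent 4 × 180k array of primer-extended double-stranded 36-bp intergenic genomic probes and negative controls. Binding intensity is the highest Masliner-normalised natural-log median intensity across replicate spots of either probe orientation, measured with Alexa488 anti-GST antibody and a 488 nm scan.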", "values": [
      {"sequence": "ATGTCAAACATTTGCACACAAAAAAATAAAAATTAA [CACACA_site692]", "gcPBM binding intensity (ln)": "9.1 ± 0.48"},
      {"sequence": "TTATACTAAATGAACACACACACATCTATATTTATA [CACACA_site6199]", "gcPBM binding intensity (ln)": "9.51 ± 0.29"},
      {"sequence": "AAATTAGACTATAATACACACATAAAAAAAAAATCA [CACACA_site7672]", "gcPBM binding intensity (ln)": "8.98 ± 0.35"},
      {"sequence": "AATTAAAATAATAATACACACATCATAGAAAAAGAC [CACACA_site292]", "gcPBM binding intensity (ln)": "9.33 ± 0.35"},
      {"sequence": "TTTTTTTTTTTTTTCTCACACATTTAATGATAATAT [CACACA_site5513]", "gcPBM binding intensity (ln)": "8.61 ± 0.45"},
      {"sequence": "CATATTTACTATCACACACACGATATATATAAATAT [CACACA_site1241]", "gcPBM binding intensity (ln)": "9.4 ± 0.42"},
      {"sequence": "TTTTTTTTTTTTTGCACACACATAATAGGTACAAAT [CACACA_site3577]", "gcPBM binding intensity (ln)": "9.22 ± 0.41"},
      {"sequence": "CTAAAATACAGACACACACACACATATATATATATA [CACACA_site4150]", "gcPBM binding intensity (ln)": "10.07 ± 0.021"},
      {"sequence": "TTAAAATAGGGCGAAGAAATTTTCTGTAAACATTTG [CACACA_negctrl_site1010]", "gcPBM binding intensity (ln)": "8.38 ± 0.53"},
      {"sequence": "ATATGCTTATATTATATATATAAGTCTATATATTTT [XGTACX_negctrl_site349]", "gcPBM binding intensity (ln)": "8.71 ± 0.38"},
      {"sequence": "GGGTTTTTAAAATGTAGTACATATGTAAACATCAAA [XGTACX_site1262]", "gcPBM binding intensity (ln)": "8.69 ± 0.57"},
      {"sequence": "ATATATATAAAATGTTGTACATATATATAAATAATA [XGTACX_site1661]", "gcPBM binding intensity (ln)": "8.67 ± 0.44"},
      {"sequence": "AGGTTTTCTTAAATAGTGCATTATAACAAAAATAAA", "gcPBM binding intensity (ln)": "8.3 ± 0.45"},
      {"sequence": "TCACGTATGTATATTACACACATACATATTATTCAC [CACACA_site4276]", "gcPBM binding intensity (ln)": "9.17 ± 0.33"},
      {"sequence": "CATAAATAAGCTTTAGTGCATTATATTTAAATTTTT", "gcPBM binding intensity (ln)": "8.55 ± 0.4"},
      {"sequence": "ATATTATATATATATAAACACACAAATATTTTTATA [CACACA_site8486]", "gcPBM binding intensity (ln)": "8.72 ± 0.4"},
      {"sequence": "ATAAAATGAACCTTTTGTACATATATATATATATAT [XGTACX_site4610]", "gcPBM binding intensity (ln)": "9.48 ± 0.23"},
      {"sequence": "AACATCTCATATCGTACTACACTCATATATATATAT [XGTACX_site170]", "gcPBM binding intensity (ln)": "9.3 ± 0.18"},
      {"sequence": "TGAATATTTCTATATACACACATATATATATATATA [CACACA_site3451]", "gcPBM binding intensity (ln)": "9.53 ± 0.28"},
      {"sequence": "TTTAATAATAATAAAAGTACACAAATATAAAGGAAA [XGTACX_site5203]", "gcPBM binding intensity (ln)": "8.73 ± 0.43"},
      {"sequence": "TAAAGTAAAGACATACTTATTTTCCATCCACTTCTT [CACACA_negctrl_site1288]", "gcPBM binding intensity (ln)": "8.71 ± 0.58"},
      {"sequence": "AAACAATAAAAGATTACACACATATATAGCATCTAT [CACACA_site5012]", "gcPBM binding intensity (ln)": "9.06 ± 0.3"},
      {"sequence": "TTTCATTTGTCGTTATGTACTTATTAAATATTATTA [XGTACX_site7709]", "gcPBM binding intensity (ln)": "8.75 ± 0.4"},
      {"sequence": "TCTGTATATTTCGCGCGTACGAACAAATTGATAATT [XGTACX_site7965]", "gcPBM binding intensity (ln)": "8.92 ± 0.4"},
      {"sequence": "ATATAATATGGTATTACACACTGTTAAAAGTATGGC [CACACA_site5190]", "gcPBM binding intensity (ln)": "8.95 ± 0.4"},
      {"sequence": "ATATATATTTTTATAACACACAATGAAGTACATTAC [CACACA_site8270]", "gcPBM binding intensity (ln)": "8.77 ± 0.41"},
      {"sequence": "CACATACAGACATACACACATACACATATACGCATA [CACACA_site1745]", "gcPBM binding intensity (ln)": "9.61 ± 0.36"}
    ]}
  ]
}
